In PubChem BioAssay AID686978 (National Center for Advancing Translational Sciences (NCATS), 2013):
Values joined by “and” are separate entries in the source; they are usually repeats but may differ in a detail not shown here. Identical values can stand only once. In all, about 420,000 compounds went through this assay and about 64,000 (15%) were called active. Inconclusive results, whose numbers are uncertain, are shown with a selection of clear calls. The call rests on the fitted dose curve; in most records, active means well fitted inhibition curve with a large enough effect; inconclusive means small, poorly fitted or top-dose-only effect; inactive means flat fitted curve, though single readings scatter. No potency is given beside an inconclusive call; the fits are too rough.

assay: qHTS for Inhibitors of human tyrosyl-DNA phosphodiesterase 1 (TDP1): qHTS in cells in absence of CPT; settings: DT40 Tdp1-/- hTDP1 cells, no CPT, ATP luminescence, 48 h; activity change, negative = growth inhibition: at 46.2 µM (top of the series) unless noted; further: nearly all actives have a fitted effect of over 55% in size
Outline: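 Growth kinetics read by CellTiter-Glo luminescence after ≥48 hr at 37 °C. Cells: DT40 Tdp1-/- stably carrying human TDP1, 400 per well, compound exposure in the absence of CPT (DMSO vehicle).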
On the % scale 0 is the no-effect control and ±100 the full control effect; potency means the concentration at half of the fitted maximal effect; tags describe the fitted curve by direction and shape.

Row | SMILES | Potency | activity change, negative = growth inhibition
1 | COc1ccc(NS(=O)(=O)c2cc(NC(=O)c3ccc(=O)[nH]n3)ccc2N2CCOCC2)cc1 | inconclusive [inhibitor, single point] | 
2 | Cc1ccc(/C=N/NC(=S)NCCc2ccccc2)s1 |  | inactive: -25.4%
3 | O=C(Nc1ccc(Cl)c(Cl)c1)OCc1cncs1 | inconclusive [inhibitor, partial curve] | 
4 | CN(C)c1nc(N)nc(CSc2nnnn2-c2ccc(Cl)cc2)n1 | inconclusive [inhibitor, partial curve] | 
5 | COC(=O)c1ccc2nc(-c3cccc(Br)c3)c(Cc3cccc(F)c3)n2c1 | inconclusive [inhibitor, full curve, poor fit] | 
6 | CC(=O)N/N=C/c1ccc(OCCOc2ccc(Br)cc2)cc1 |  | inactive: -15.9%
7 | CCN(CC(=O)Nc1ccc(NC(C)=O)cc1)C(=O)/C=C/c1ccco1 |  | inactive: 0.332%
8 | CCCOc1cc(C)c(Cl)cc1S(=O)(=O)N(CC)CC | inconclusive [inhibitor, single point] | 
9 | CCC(C)NC(=O)c1ccc(CSCc2ccccc2Cl)o1 (stereo not drawn) | inconclusive [inhibitor, single point] | 
10 | O=S(=O)(c1ccc(-c2ccccc2)cc1)N1CCCC1 |  | inactive: 6.42%
11 | CCOC(=O)c1ccccc1NC(=O)CN1C(=O)NC(C)(CCc2ccccc2)C1=O (stereo not drawn) | inconclusive [inhibitor, partial curve] | 
12 | O=C(Nc1ccc(N2CCOCC2)c(Cl)c1)c1ccc(F)cc1 | inconclusive [inhibitor, partial curve] | 
13 | COc1cc(C2C3=C(COC3=O)Oc3cc4c(cc32)OCO4)cc(OC)c1OC(C)=O (stereo not drawn) | active: 0.651 µM | 
14 | CCOC(=O)N1CCC(NC(=O)CN(c2ccc(C(C)C)cc2)S(=O)(=O)c2c(C)nn(C)c2C)CC1 |  | inactive: 3.8%
15 | c1ccc(Cn2nnnc2C(c2cccnc2)N2CCN(c3ccccc3)CC2)cc1 (stereo not drawn) | active: 23.1 µM | 
16 | CC1CCCC(C)N1C(=O)COC(=O)CSc1ccc(C(N)=O)cc1[N+](=O)[O-] (stereo not drawn) |  | inactive: -15.3%
17 | Cc1ccc2oc(-c3cc(NC(=O)Cc4ccccc4)ccc3Cl)nc2c1 | inconclusive [inhibitor, single point] | 
18 | O=C(CN1CCNC(=O)C1)NCCc1ccc(Cl)cc1Cl |  | inactive: 16.1%
19 | COc1ccc(NC(=S)N(CCCN2CCCCC2)Cc2cccs2)cc1 | inconclusive [inhibitor, single point] | 
20 | Cc1sc(NC(=O)CN2CCOCC2)c(C#N)c1C |  | inactive: 4.42%
21 | COc1cc(/C=C/C(=O)Nc2nc3ccc(S(=O)(=O)N(C)C)cc3s2)cc(OC)c1OC | inconclusive [inhibitor, full curve, poor fit] | 
22 | CC(c1ccccc1C(O)(c1ccccc1)c1ccccc1)N(C)C (stereo not drawn) | inconclusive [inhibitor, single point] | 
23 | CCCCOc1ccc(C(=O)NCCS(=O)(=O)N2CCN(c3ccccc3OC)CC2)cc1 | active: 7.31 µM | 
24 | CCCCc1ccc(NC(=S)N2CCN(c3ccccn3)CC2)cc1 | inconclusive [inhibitor, single point] | 
25 | C#CCNc1nc(CC)nc2c1nnn2Cc1ccccc1F |  | inactive: -21.6%

Row | SMILES | Potency | activity change, negative = growth inhibition
26 | CN(C)c1ccc(C(CNC(=O)c2ccccc2Cl)N2CCc3ccccc32)cc1 (stereo not drawn) | inconclusive [inhibitor, single point] | 
27 | O=C(NC1CC1)[C@@H]1C[C@@H](Sc2nc3ccccc3[nH]2)CN1CC1CCCCC1 | inconclusive [inhibitor, partial curve, poor fit] | 
28 | COc1ccccc1Cc1c(-c2ccc(F)cc2)nc2ccc(Cl)cn12 | inconclusive [inhibitor, single point] | 
29 | CCOC(=O)C1CCCN(C(=O)Cc2ccc(OC)c(OC)c2)CC1 (stereo not drawn) | inconclusive [inhibitor, single point] | 
30 | Cc1cccc2c(=O)cc(C(F)(F)F)[nH]c12 | inconclusive [inhibitor, single point] | 
31 | O=C(Nc1cccnc1)c1ccc(CN2CCc3ccccc3C2)cc1 | active: 16.4 µM | 
32 | Cc1cc(N2CCN(C(=O)Nc3ccc(F)cc3F)CC2)c2ccccc2n1 | inconclusive [inhibitor, partial curve] | 
33 | Cc1cc2c(C)nc(Cc3ccccc3)nc2o1 |  | inactive: -19.1%
34 | COc1ccc(NC(=S)NC2CCCC2)c(OC)c1 |  | inactive: 0.987%
35 | COc1ccc(/C(N)=N/OC(=O)c2ccc(OC)c([N+](=O)[O-])c2)cc1OC | active: 11.6 µM | 
36 | CCOC(=O)N1CCN(Cc2nc3ccc([N+](=O)[O-])cc3c(=O)n2-c2ccc(OC)cc2OC)CC1 | inconclusive [inhibitor, single point] | 
37 | Cc1nc2sc(C(c3ccc(Br)cc3)N3CC(C)OC(C)C3)c(O)n2n1 (stereo not drawn) | inconclusive [inhibitor, single point] | 
38 | O=C(COc1ccc(Cl)cc1)Nc1ccc(O)c(-c2nc3ccccc3s2)c1 | inconclusive [inhibitor, single point] | 
39 | CC(=O)/C=C/c1ccccc1O | inconclusive [inhibitor, single point] | 
40 | OCCNCCOc1ccc(Cl)c(Cl)c1 | inconclusive [inhibitor, partial curve, poor fit] | 
41 | CC(C)C(c1nnnn1C1CCCCC1)N1CCOCC1 (stereo not drawn) |  | inactive: -3.86%
42 | COc1cc(NC(=O)CN2C(=O)COc3ccc(S(=O)(=O)N4CCCC4)cc32)cc(OC)c1 | inconclusive [inhibitor, single point] | 
43 | CC1(NC(=O)CSc2nnc(-c3c[nH]c4ccccc34)n2C2CC2)CCS(=O)(=O)C1 (stereo not drawn) |  | inactive: -17.5%
44 | CC(C)C1C(=O)N(Cc2cn(CCC3OCCCO3)nn2)CCS(=O)(=O)N1Cc1ccc(-c2ccc(Cl)nc2)cc1 (stereo not drawn) | active: 23.1 µM | 
45 | Clc1ccc2c(N/N=C/c3cccc(Br)c3)ccnc2c1 | active: 16.4 µM | 
46 | COc1ccc(S(=O)(=O)NC(C)C(=O)NCc2cccnc2)cc1C (stereo not drawn) |  | inactive: -17.4%
47 | CCn1c(C)cc(/C=C2\NC(=O)N(Cc3ccc(Cl)cc3)C2=O)c1C | inconclusive [inhibitor, single point] | 
48 | O=C(COc1nc2ccccc2nc1N1CCOCC1)Nc1ccc(S(=O)(=O)N2CCCC2)cc1 | inconclusive [inhibitor, single point] | 
49 | COc1ccccc1N1CCN(Cc2cc(=O)c(OCC#N)co2)CC1 |  | inactive: 21.2%
50 | Cc1cc(C)c(S(=O)(=O)c2ccc(F)cc2)c(C)c1 | inconclusive [inhibitor, full curve, poor fit] | 

Row | SMILES | Potency | activity change, negative = growth inhibition
51 | Cc1ccc(S(=O)(=O)N2CCOCC2)cc1NC(=O)c1cccc(S(=O)(=O)N2CCCC2)c1 | inconclusive [inhibitor, single point] | 
52 | Cc1ccc(NC(=S)N(Cc2cccs2)Cc2cc3cc(C)ccc3[nH]c2=O)cc1 | inconclusive [inhibitor, single point] | 
53 | COc1cccc(CNc2ccc([N+](=O)[O-])cc2C)c1 | active: 18.4 µM | 
54 | CCCC(=O)Nc1cc(S(=O)(=O)N2CCOCC2)ccc1N1CCCCC1 | inconclusive [inhibitor, single point] | 
55 | Cc1cc(Br)ccc1NC(=O)COc1cc(=O)n(C)c2ccccc12 | inconclusive [inhibitor, partial curve, poor fit] | 
56 | COc1ccccc1NC(=O)c1ccc2[nH]c(C)cc(=O)c2c1 |  | inactive: -18%
57 | NC(=S)NN=C1CCC(C2CCCCC2)CC1 (stereo not drawn) | active: 3.66 µM | 
58 | CCCCNC(=O)C1C(c2ccc(C(F)(F)F)cc2)=Nc2ccccc2N1C(=O)c1cccc(C(F)(F)F)c1 (stereo not drawn) | inconclusive [inhibitor, single point] | 
59 | CN(C)/C=N/C(=S)Nc1ccc(Cl)c(Cl)c1 |  | inconclusive: -32.9% [inhibitor]
60 | O=C(COc1ccccc1)Nc1nnc(-c2ccc(Cl)s2)o1 | inconclusive [inhibitor, single point] | 
61 | CC(=O)C[C@H]1c2ccccc2S(=O)(=O)N1C1CCCC1 | inconclusive [inhibitor, single point] | 
62 | Cn1c(SCc2cccc3ccccc23)nnc1-c1ccco1 | inconclusive [inhibitor, single point] | 
63 | CCc1nc(N)nc(N)c1-c1ccc(Cl)c(N=[N+]=[N-])c1 | active: 366 nM and active: 1.84 µM | 
64 | Cc1cccc(N=C2NN=C(c3ccc4c(c3)OCCO4)CS2)c1 |  | inactive: -12.1%
65 | Cc1ccc(S(=O)(=O)NCCCCCC(=O)Nc2c(C)n(C)n(-c3ccccc3)c2=O)cc1 |  | inactive: -28.5%
66 | COc1cccc(CNC(=O)CSc2nc3ccccc3nc2Cc2ccccc2)c1 | inconclusive [inhibitor, partial curve] | 
67 | Cc1ccccc1NC(=O)c1c(C)oc2ccc(O)c(CN3CCCC(C)C3)c12 (stereo not drawn) | active: 20.6 µM | 
68 | O=C(O)c1c(-c2ccccc2)cnc2ccccc12 |  | inactive: 4.03%
69 | Cc1ccc(OCC(=O)Nc2ccc(C(=O)Nc3ccccc3C(=O)O)cc2)cc1C |  | inactive: -1.99%
70 | CCOC(=O)C1CCCN(C(=O)c2ccc(CS(=O)(=O)c3ccc(Br)cc3)o2)C1 (stereo not drawn) | inconclusive [inhibitor, partial curve] | 
71 | O=C(c1cc(Cl)ccc1Cl)N1CCN(Cc2ccccc2)CC1 | inconclusive [inhibitor, partial curve] | 
72 | O=C1CCC(C(=O)N2CCc3c(Cl)cccc3C2)CN1CCCN1CCOCC1 (stereo not drawn) |  | inactive: -17.5%
73 | O=c1c2sc3ccccc3c2n(Cc2ccccc2F)c(=O)n1-c1ccccc1Cl | active: 9.2 µM | 
